The antibiotic and cytotoxicity screens of Wong et al. (2023)
Some of the results follow.

Test system: HSkMC (human skeletal muscle cells)
Test: cytotoxicity call (relative viability < 0.9)
Settings: 10 µM

**Q.** `C[C@@H]1CCCCO[C@@H](CN(C)C(=O)Nc2ccc(C(F)(F)F)cc2)[C@@H](C)CN([C@H](C)CO)C(=O)c2cc(NC(=O)Nc3cccc4ccccc34)ccc2O1` was tested. Which cytotoxicity call did it give?
**A.** The cytotoxicity call was “inactive”.

**Q.** With `Fc1ccc(C2=NNC3=NCCN3C2)cc1F` as the molecule, how does the cytotoxicity call read?
**A.** Its cytotoxicity call is “inactive”.

**Q.** `CO[C@H]1CN(C)C(=O)c2cc(NS(=O)(=O)c3cn(C)cn3)ccc2OC[C@H](C)N(CC2CC2)C[C@@H]1C` was tested. Which cytotoxicity call did it give?
**A.** Its cytotoxicity call is “inactive”.

**Q.** `C[C@@H]1CN([C@H](C)CO)C(=O)c2cc(NC(=O)CCCN(C)C)ccc2O[C@H]1CN(C)Cc1ccc(C(=O)O)cc1` was tested. Which cytotoxicity call did it give?
**A.** Its cytotoxicity call is “inactive”.

**Q.** `C[C@@H]1CN([C@H](C)CO)C(=O)c2cccc(NC(=O)Nc3ccc(F)cc3)c2O[C@H]1CN(C)S(C)(=O)=O` was tested. Which cytotoxicity call did it give?
**A.** The cytotoxicity call was “inactive”.

**Q.** Which cytotoxicity call does the source give for `Cc1noc(C)c1S(=O)(=O)Nc1ccc2c(c1)C(=O)N([C@H](C)CO)C[C@H](C)[C@H](CN(C)S(=O)(=O)c1ccc(F)cc1)O2` here?
**A.** Its cytotoxicity call is “inactive”.

**Q.** For `CCCN(CCC)C(=O)C(CCC(=O)O)NC(=O)c1ccccc1` (stereo not given), which cytotoxicity call is on record?
**A.** The cytotoxicity call was “inactive”.

**Q.** `COc1ccccc1CNC(=O)C[C@H]1C[C@H]2c3cc(NC(=O)Nc4ccc(C(F)(F)F)cc4)ccc3O[C@H]2[C@@H](CO)O1` was tested. Which cytotoxicity call did it give?
**A.** The cytotoxicity call was “inactive”.

**Q.** With `COc1cc2c(cc1OC)CN(C(=O)[C@H]1[C@@H]3C(=O)O[C@@H](c4ccccc4)[C@@H](c4ccccc4)N3[C@@H](c3ccc(O)cc3)[C@]13C(=O)Nc1ccc(C#CC4(O)CCCCCC4)cc13)CC2` as the molecule, how does the cytotoxicity call read?
**A.** The cytotoxicity call was “inactive”.

**Q.** `C[C@H]1CN([C@@H](C)CO)C(=O)c2cc(NC(=O)Cn3cnnn3)ccc2O[C@H]1CN(C)C(=O)Nc1ccc(C(F)(F)F)cc1` was tested. Which cytotoxicity call did it give?
**A.** Its cytotoxicity call is “inactive”.

**Q.** Which cytotoxicity call does the source give for `C[C@@H]1CN([C@H](C)CO)C(=O)c2cc(NS(=O)(=O)c3cccs3)ccc2O[C@@H]1CN(C)S(=O)(=O)c1ccccc1` here?
**A.** Its cytotoxicity call is “inactive”.

**Q.** How did the cytotoxicity call turn out when `C[C@@H]1CCCCO[C@H](CN(C)C(=O)Nc2ccc3c(c2)OCO3)[C@@H](C)CN([C@H](C)CO)C(=O)c2cc(NC(=O)Nc3ccccc3)ccc2O1` was run?
**A.** The cytotoxicity call was “inactive”.

**Q.** With `CC(C)CC#Cc1ccc2c(c1)O[C@H](CN(C)C(=O)c1cnccn1)[C@H](C)CN([C@@H](C)CO)S2(=O)=O` as the molecule, how does the cytotoxicity call read?
**A.** Its cytotoxicity call is “inactive”.

**Q.** For `Cc1nc2[nH]c(C)c(CCC(=O)O)c(=O)n2n1`, which cytotoxicity call is on record?
**A.** Its cytotoxicity call is “inactive”.

**Q.** With `COc1ccc(S(=O)(=O)N(C)C[C@@H]2Oc3ccc(NC(=O)Cn4cnnn4)cc3CC(=O)N([C@@H](C)CO)C[C@@H]2C)cc1` as the molecule, how does the cytotoxicity call read?
**A.** Its cytotoxicity call is “inactive”.

**Q.** With `C[C@H](CO)N1C[C@H](C)[C@H](CN(C)CC2CCOCC2)Oc2cc(-c3cccnc3)ccc2S1(=O)=O` as the molecule, how does the cytotoxicity call read?
**A.** Its cytotoxicity call is “inactive”.

**Q.** With `O=C(C[C@@H]1C[C@@H]2c3cc(NC(=O)C4CCOCC4)ccc3O[C@@H]2[C@@H](CO)O1)NCc1ccc2c(c1)OCO2` as the molecule, how does the cytotoxicity call read?
**A.** Its cytotoxicity call is “inactive”.

**Q.** Which cytotoxicity call does the source give for `Cc1noc(C)c1S(=O)(=O)N(C)C[C@H]1Oc2c(NS(=O)(=O)c3cn(C)cn3)cccc2C(=O)N([C@@H](C)CO)C[C@@H]1C` here?
**A.** The cytotoxicity call was “inactive”.

**Q.** Which cytotoxicity call does the source give for `COCCNC(=O)C[C@@H]1CC[C@@H](NS(=O)(=O)c2ccc(C)cc2)[C@@H](CO)O1` here?
**A.** The cytotoxicity call was “inactive”.

**Q.** `COCC(=O)Nc1ccc2c(c1)C(=O)N(C)[C@@H]1CC[C@H](CC(=O)NCc3ccc(OC)cc3)O[C@@H]1CO2` was tested. Which cytotoxicity call did it give?
**A.** The cytotoxicity call was “inactive”.

**Q.** With `C[C@H]1CCCCO[C@@H](CN(C)C(=O)c2ccncc2)[C@@H](C)CN([C@@H](C)CO)C(=O)c2cc(NC(=O)NC3CCCCC3)ccc2O1` as the molecule, how does the cytotoxicity call read?
**A.** The cytotoxicity call was “inactive”.

**Q.** Which cytotoxicity call does the source give for `C[C@@H]1CN([C@H](C)CO)C(=O)c2cc(NC(=O)Nc3ccc(C(F)(F)F)cc3)ccc2O[C@@H]1CN(C)S(C)(=O)=O` here?
**A.** The cytotoxicity call was “inactive”.

**Q.** With `O=C(C[C@@H]1CC[C@@H]2[C@H](COC[C@H](O)CN2C(=O)Nc2ccc(Cl)c(Cl)c2)O1)NCc1ccc(Cl)c(Cl)c1` as the molecule, how does the cytotoxicity call read?
**A.** Its cytotoxicity call is “inactive”.

**Q.** How did the cytotoxicity call turn out when `CC(C)NC(=O)N(C)C[C@H]1Oc2c(NC(=O)Nc3ccc4c(c3)OCO4)cccc2C(=O)N([C@@H](C)CO)C[C@@H]1C` was run?
**A.** Its cytotoxicity call is “inactive”.

**Q.** For `COc1ccc(-c2cc(=O)c3c(O)c(OC)c(OC4OC(COC5OC(C)C(O)C(O)C5O)C(O)C(O)C4O)cc3o2)cc1` (stereo not given), which cytotoxicity call is on record?
**A.** Its cytotoxicity call is “inactive”.

**Q.** For `C[C@@H]1CCCCO[C@H](CN(C)Cc2ccncc2)[C@H](C)CN([C@@H](C)CO)C(=O)c2cc(NC(=O)Cc3ccccc3)ccc2O1`, which cytotoxicity call is on record?
**A.** The cytotoxicity call was “inactive”.

**Q.** Which cytotoxicity call does the source give for `C[C@@H]1CN([C@H](C)CO)C(=O)Cc2cc(NS(=O)(=O)c3ccc(F)cc3)ccc2O[C@@H]1CN(C)S(=O)(=O)c1ccccc1` here?
**A.** Its cytotoxicity call is “inactive”.

**Q.** With `C[C@@H]1CN([C@@H](C)CO)C(=O)Cc2cc(NS(=O)(=O)c3cn(C)cn3)ccc2O[C@@H]1CN(C)S(=O)(=O)c1ccccc1` as the molecule, how does the cytotoxicity call read?
**A.** The cytotoxicity call was “inactive”.

**Q.** For `C[C@@H]1CN([C@@H](C)CO)C(=O)c2cccc(NC(=O)C3CC3)c2O[C@H]1CN(C)Cc1ccc(Oc2ccccc2)cc1`, which cytotoxicity call is on record?
**A.** Its cytotoxicity call is “inactive”.

**Q.** `CNC[C@@H]1OCCCC[C@H](C)Oc2ccc(NS(=O)(=O)c3cn(C)cn3)cc2C(=O)N([C@@H](C)CO)C[C@H]1C` was tested. Which cytotoxicity call did it give?
**A.** Its cytotoxicity call is “inactive”.

**Q.** With `CN(CCO)S(=O)(=O)c1ccc2c(c1)C(=NO)c1cc(S(=O)(=O)N(C)CCO)ccc1-2` as the molecule, how does the cytotoxicity call read?
**A.** Its cytotoxicity call is “inactive”.

**Q.** With `C=CC(=O)N[C@@H]1c2ccccc2C[C@@H]1O` as the molecule, how does the cytotoxicity call read?
**A.** The cytotoxicity call was “inactive”.

**Q.** For `COCC#Cc1cnc2c(c1)C(=O)N([C@@H](C)CO)C[C@@H](C)[C@@H](CN(C)C(=O)CCN1CCCCC1)O2`, which cytotoxicity call is on record?
**A.** Its cytotoxicity call is “inactive”.

**Q.** `COc1ccc(NC(=O)Nc2ccc3c(c2)C(=O)N([C@H](C)CO)C[C@H](C)[C@H](CN(C)Cc2ccc4c(c2)OCO4)OCCCC[C@H](C)O3)cc1` was tested. Which cytotoxicity call did it give?
**A.** Its cytotoxicity call is “inactive”.

**Q.** How did the cytotoxicity call turn out when `CO[C@@H]1CN(C)C(=O)c2ccc(NS(C)(=O)=O)cc2OC[C@@H](C)N(C(=O)C2CCOCC2)C[C@H]1C` was run?
**A.** Its cytotoxicity call is “inactive”.

**Q.** For `COc1ccc(S(=O)(=O)N(C)C[C@H]2Oc3c(NS(=O)(=O)c4c(C)noc4C)cccc3C(=O)N([C@H](C)CO)C[C@H]2C)cc1`, which cytotoxicity call is on record?
**A.** The cytotoxicity call was “inactive”.

**Q.** For `Cc1ccc(F)cc1NC(=O)[C@@H](C)N`, which cytotoxicity call is on record?
**A.** Its cytotoxicity call is “inactive”.

**Q.** How did the cytotoxicity call turn out when `COc1ccc(S(=O)(=O)N(C)C[C@H]2Oc3ccc(N(C)C)cc3CC(=O)N([C@H](C)CO)C[C@@H]2C)cc1` was run?
**A.** The cytotoxicity call was “inactive”.

**Q.** For `COc1ccc(CN(C)C[C@H]2Oc3c(NC(=O)c4ccc(-c5nccs5)cc4)cccc3C(=O)N([C@H](C)CO)C[C@H]2C)cc1`, which cytotoxicity call is on record?
**A.** The cytotoxicity call was “inactive”.

**Q.** For `C[C@H](CO)N1C[C@H](C)[C@@H](CN(C)S(=O)(=O)c2ccc(Cl)cc2)OCCCC[C@H](C)Oc2ccc(NS(=O)(=O)c3ccccc3)cc2C1=O`, which cytotoxicity call is on record?
**A.** The cytotoxicity call was “inactive”.
